Measured values reported in the supplement of paper PMC12632987.
The full ranking holds about 4,500 sequences; the median of “median log2 fold change of GCK-ALFA target abundance (FLAG IP / Myc IP barcode read proportion)” is about 0.078, and the lowest 2% start at about -0.6. This is one part of the list.

B1: GBRAP_128_3337 (protein)
chain: VDEEKLEKVEKLVKEIIKADKEEAKKLAEELAELLVELSLEEVEAAAEIIRKYIPKLSAEQLEILADVLRKYLPKFTPEQQLIINDLIVDLLNAAEEKEE
B2: GBRAP_128_3178 (protein)
chain: SVEEVKEETRKKMEEIKNSSPEEAKKIATELFESLLTKSLEEVEAAAEVIEEQLPELSAEHLEILADVGRELLPKYTPEKQEIVAGVIVDALNEAEEKEE
B3: GBRAP_131_3609 (protein)
chain: AKSLLVTIENPKSVEELLAQVDAAIAEARARGADVLVINLVNVTEEQYDAALDHADERQAELEAERGMRLVVLPPGTTLEQAQQVLRALALEVEEEKEEE
B4: GBRAP_78_6652 (protein)
chain: ELEELLDKAIDIVDQAAKAAQQLDADTQNEVLGHLVDAATYLEEARENGGDLENLEKALEHVKKALEILKAQDTEQAKALAKLLEEAIETLEKAIELKKK
B5: GBRAP_160_4657 (protein)
chain: SPEIEKLKEEIEEIFDEAKEMVVGETHEERVAIARVMVGDVVLEASESPEISEEAEDEIDEVGRALVAELEANPDWTDEEVLAAIDEALEKVLEIIEKHS
B6: GBRAP_14_3792 (protein)
chain: MEKIRAILEEMIERIMELIEDLPADLRAALRAALTALADETLARIEATGDLDAAMDEFRERAVAATAEILADLPAETRANAQAIVATEADNAEVEIDEAA
B7: GBRAP_160_4577 (protein)
chain: SEEMEKLIKEIKEITEETLEWLDDETYEQRKAIVRVTVGDILLLLEENPEVSEELLEEAAKLGDELIATIDANPDLTAEEIKKLVKEMTEKIIKLIKEES
B8: GBRAP_52_6034 (protein)
chain: MRERMRRLAEEAVALALAGDEEGAKALIKEAVETLSEEELKLLGEELARLAREAAPEDLDAIMEVAFWLADALIEAGYDEVFADDLEARVARAAVENLQA
B9: GBRAP_78_6574 (protein)
chain: EIEKLIDEAIEHLNRAATALAALNTPEAQDILAEVVDALSYLLEAEENGFDLELLEKAKKHVEKAIELVDKVPKPEYEAIRKELEEALKLLEEAIKLVKE
B10: GBRAP_52_5939 (protein)
chain: MEEEIRRLVDELIALVKAGKLEEARALAREIVETWSDEELRRFIDVLAERARTAPLEDLPYILELAEIFAEELEEAGRDEVLADELLARVSAAAYENEQK
B11: GBRAP_52_5896 (protein)
chain: KAEEVLELLKKAVDAVEAGKLEEARKYIREAVKVAVELSEEEIREVAREAAKYAAEKSPEVFERFLELVLELLDEEEDLTEDEEAVLEILAAELARIYLA
B12: GBRAP_184_5196 (protein)
chain: KITEVELKAENLEEVKEKMEEVLEIAKKEKAELLLILDLKEVTLEMAEVIMNTLKEIKEKGYSPKITLEVVGKMSEEVIDKLIELADEAGVNLTLALDEE
B13: GBRAP_160_4482 (protein)
chain: SEKLEKAKEEVKELIEEMVEALLETKDDSRLGIARAYAGDIVETALELGVISEEEAEELLKLAEEGFEKIVKALEEGEEAMKKAAEELKKKIFEFLEKKS
B14: GBRAP_11_2642 (protein)
chain: KKEKLKEALKLAKEAIKALKKLLKEGVDNEELWKKIKELLEKLAKLVEKYADESLKKLVKIAKELLKKAEEDPENKKEYVENLLAALRVLAAELEELIEE
B15: GBRAP_52_6272 (protein)
chain: MEEEAKKLAEEFLDVVLNKSEEEIKKFAKELVENNSQELIAKTLEIVVKMSEELNLEEIEKVLDAFLILEDELEEAGKDPLPAEDAAARIAGLALEKEAE
B16: GBRAP_52_6329 (protein)
chain: SREEVERLAEELYRAIEAGDEERAKELAERAVEELSSEEILELTRIVAERVSKEGYEVQVRFTEVAEYLAELVEEKRGDERTAAEILGIVARTLYAAELA
B17: GBRAP_160_3975 (protein)
chain: MEKVEELLKEIKELVEETIELIEGESFEERLTIIKMTMGEIILLVDESEEVSDEAEEKVAEIGDETIEYIESHPELTDEEIKELLKETEEKIKEVILEDS
B18: GBRAP_35_5584 (protein)
chain: DIEQIILDTVRDWAEATIEAIKEEDDETVISLTKAFIRTVKLAIEDLKNNKKALEEIIKEIEKVIKALEKYRSDNEEIKKLIKELKKLKKEAEKLAKENE
B19: GBRAP_160_3991 (protein)
chain: SEEIEKLKEEFKKLFDEMLELAEGESPEERLAVVRVMMGEVILLAEESGVVSDEAEEEIAKIMDELVATVEANPDMSMEELKALVEEALKKIFEVIDKYS
B20: GBRAP_160_4289 (protein)
chain: EEEAEKLKKEVEEIAKETIEMMKGETREERVTLVRVAGGEVAWLLSENPNISDETVEKVLKIWDEVAETIEKNPNLTDEEIEELIEKAVEEAKKIIEEEY
B21: GBRAP_83_6965 (protein)
chain: MEKITVATTKDHIDSAIEAARDLATEEGYEVTIEIIGSPEEVLESAEKAAEALKDIPNVEILAAVENVRPEEAEELKKRLAEIGKKYGLKVEVRYEIVEP
B22: GBRAP_78_6658 (protein)
chain: ELEEALDKAEEAARELLKKAKKVDPELANLAAEADVLVGEARLLYEIEKASPEEIKKALKEAKKAAEELAKKAKKKDKEVAELAEKLIKLLEEAIKLLEK
B23: GBRAP_52_5860 (protein)
chain: MVEEALEKLRKAVEAMKAGKEEEAEKILKEIVENFDEETILAAAEAFAKEMATATPEEAEAAFRTAEMLGKILEEAGFDEEVVTLIEDTIGAAVARVEAA
B24: GBRAP_160_4734 (protein)
chain: SERIEKAVEEAKEEFLEAVDDTADLSKEEQRAVFEGTAGEVLMDFIEDPNFSDEMEDTAAKMLDELVEELAANYDASVEEKKAIVEEKMEKLKKELLKLA
B25: GBRAP_160_4724 (protein)
chain: DPRLEALVAEARELLTEAVELSEDLSREEARALFETAAGEVLLDFAEDPFVTDEMEEKAAEILDELVAELVANYDASLEEKKAIVDRHMERLLEELKKLA
B26: GBRAP_160_4646 (protein)
chain: SESLKDILEIIDFYTEIAKEAIDEGDLDNAIAAMRMMTGDVVLEADEDPRFSEEDVDELDELGRKAVAELEAAKDASPEELKALVEKGAEELKKKIEEFY
B27: GBRAP_160_4822 (protein)
chain: SATVEEMKKLVDATTAEALALVAGETAANRAAIVAVEFGQLVLELSERPEVTDELEDKIAAIGDALVAHIAANPDLTDAELAAAIEAARDAIIAAIESSF
B28: GBRAP_35_5539 (protein)
chain: NEEEEEVEMIVNTMEDLVDALPDVSPEDRAALAEHLIRLAEDIVKDKPKNEKLIERAIKNLERAIEILKKSDLPEEDRERLIERLKEVKEELKKILKENK
B29: GBRAP_160_4130 (protein)
chain: KEELKKLKEEIKEIAEEAIKMIEGESVEEAKVIARVALGEIIMLVESNEAVSEELEEKIGEIADEAEEYLDENPDLSVEEIKELLKETAEKIVELIEKEI

Biological target: GABARAP, O95166
Sequence (O95166 whole entry, the tested form may be a part): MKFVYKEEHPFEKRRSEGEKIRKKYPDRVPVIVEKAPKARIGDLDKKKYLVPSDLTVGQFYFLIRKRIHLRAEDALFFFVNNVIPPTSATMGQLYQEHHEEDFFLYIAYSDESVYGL
Experiment: median log2 fold change of GCK-ALFA target abundance (FLAG IP / Myc IP barcode read proportion) (log2 ratio); each designed protein is fused to an ALFA-tag nanobody in HEK293 cells to bring the named protein to FLAG-tagged glucokinase (GCK); Myc marks an untargeted standard; higher = target protein stabilised (more abundant)
Conditions: target protein: 3xFLAG-MCP-GCK-ALFA reporter; HEK293 landing pad (RPLP)
How it was run: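 An ALFA-nanobody-fused binder library was recombined into HEK293 landing-pad cells and induced with 2 μg mL^−1 doxycycline. Cells were transfected with a plasmid expressing a FLAG-tagged target and a Myc-tagged standard. After 48 h, lysates underwent anti-FLAG and anti-Myc immunoprecipitation, and circular RNA barcodes were reverse transcribed, amplified and sequenced. Target abundance is the per-binder median log2 ratio of FLAG to Myc barcode read proportions. Barcodes needed ≥10^−7 proportion in both replicates, binders ≥3 barcodes per replicate, and a 10^−6 pseudocount was added; the two replicates were pooled.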

Binder	median log2 fold change
B1	0.23
B2	0.192
B3	0.0501
B4	0.22
B5	-0.153
B6	0.203
B7	-0.0624
B8	-0.573
B9	0.172
B10	-0.119
B11	-0.14
B12	0.0214
B13	0.259
B14	-0.358
B15	0.138
B16	0.164
B17	-0.342
B18	0.136
B19	-0.567
B20	-0.297
B21	0.0811
B22	0.143
B23	0.165
B24	-0.00503
B25	-0.149
B26	-0.16
B27	-0.284
B28	0.048
B29	-0.457
